Measured values taken from the RNAGym collection of RNA variant scans (doi:10.7554/elife.90254).
The source gives no read counts; variants with many changes may rest on few reads.

B1: LINE1-mini (parent)
chain: GGCAGAGCUCAACACAGCGUGGCAAAGUGGCUGUGGCUAGACUGCC

Variants of: B1
Assay: self-cleavage, relative activity (ratio to wild type); higher = more cleavage; in vitro, sequencing; the parent is a self-cleaving ribozyme

Variant	self-cleavage
GGCAGAGCUCAACACAGCGUUGCAAAGUGGCUGCGACUAGACUGCU	0.34
GGCAGAGCUCAACACAGCGUGCCAAAGUGGCAGUUACUAGACUGUC	0.02
GGCAGAGCUCAACACAGCGUUGCAAAGCGGCUGUGGCUAGACUGUC	0.22
GGCAGAGCUCAACACAGCGUGCCAAAGUGGCUCCGGCUAGACUGCC	0.04
GGCAGAGCUCAACACAGCGUGAAACAGUGGCUGUGUCUAGACUGCC	0.06
GGCAGAGCUCAACACAGCGUUGCAAAGUUGCUGUGGCUAUACUGCC	0.04
GGCAGAGCUCAACACAGCGUUGCAAAGUGGCUGUUGCUAGACAGCC	0.02
GGCAGAGCUCAACACAGCGUGCCAAAGCGCCUGUGGCUAGACUGCC	1.39
GGCAGAGCUCAACACAGCGUGCCUAACUGGCUGUGGCUAGACUGCC	0.74
GGCAGAGCUCAACACAGCGUGACAACUUGGCGGUGGCUAGAAUGCC	0.08
GGCAGAGCUCAACACAGCGUGCCUGAGUGGUUGUUGCUAGACUGCC	0.03
GGCAGAGCUCAACACAGCGUGCCAAAGUUGCUGCGACUAGACUGCC	0.04
GGCAGAGCUCAACACAGCGUUGCAAAGGGGCUGUGGCUAGACUGCA	0.47
GGCAGAGCUCAACACAGCGUUGCAAACUGGCUGUUUCUAGACUGCC	0.04
GGCAGAGCUCAACACAGCGUGACAAAGUGGCUGUAGCUAGACUGUC	0.25
GGCAGAGCUCAACACAGCGUUGCAAAGUGGCUGCGGCUAGACUGGC	0.03
GGCAGAGCUCAACACAGCGUUGCAAAGUGGCUUUGGCAAGACUGCC	0.18
GGCAGAGCUCAACACAGCGUGCAAAAGUGGCUUUGGCUAGACUGCC	0.06
GGCAGAGCUCAACACAGCGUUGCAAAGUGGCUGUGAUUAGACUGUC	0.08

Variant	self-cleavage
GGCAGAGCUCAACACAGCGUUGCAAAGUUGCUGUGGAUAGACUGCC	0.01
GGCAGAGCUCAACACAGCGUUGCAAAGUCGAUGUGGCUAGACUGCC	1.29
GGCAGAGCUCAACACAGCGUGCAAAAGUGGCUGUGGCUAAACUGCC	0.14
GGCAGAGCUCAACACAGCGUGACGGAGUGGCUGUGGAUAGACUGCC	0.03
GGCAGAGCUCAACACAGCGUUGCAAAGUUGCUGUGGCAAGACUGCC	0.15
GGCAGAGCUCAACACAGCGUGACGGAGUGGCUCUGGCUAGACUGCC	0.08
GGCAGAGCUCAACACAGCGUGCCAAAGUGGCUGCGGAUAGAAUGCC	0.01
GGCAGAGCUCAACACAGCGUGCCAAAGUGGCUGUCGAUAGACUGUC	0.05
GGCAGAGCUCAACACAGCGUGACAAAGUUGCUGUGGGUAGACUGCC	0.01
GGCAGAGCUCAACACAGCGUGCAAAAGUUGGUUUGGCUAGACUGCC	0.02
GGCAGAGCUCAACACAGCGUGCCAAAGUGGCUUUGGGUAGACUGCC	0.12
GGCAGAGCUCAACACAGCGUGACAAAGUUGCUGUGGCUAGACUGUC	1
GGCAGAGCUCAACACAGCGUGCGAAAGUGGCUGUGUAUAGACUGCC	0.03
GGCAGAGCUCAACACAGCGUUGCAAAGUGGCUGUGACUAGACCGCC	0.08
GGCAGAGCUCAACACAGCGUUGCAAAGCGGCUGGGGCUAGACUGCC	0.16
GGCAGAGCUCAACACAGCGUGACAAAGUGGCUGAGUCUAGACUGCC	0.02
GGCAGAGCUCAACACAGCGUUGCAAAGUGGCUUGGGCUAGACUUCC	0.06
GGCAGAGCUCAACACAGCGUGACAAAGUCGUUGUGGCUAGACUGAC	0.2
GGCAGAGCUCAACACAGCGUGACAAAGUAGCUGUAGCUAGACUGCC	0.36

Variant	self-cleavage
GGCAGAGCUCAACACAGCGUGACAAAUGGGCUGUGGCUAGACUGCC	0.24
GGCAGAGCUCAACACAGCGUGACAAAGUGGCUGAGGCUUGACCGCC	0.02
GGCAGAGCUCAACACAGCGUUGCAAAGUGUCUGUGGCUAGACUGUC	0.88
GGCAGAGCUCAACACAGCGUGACAAAGUGGCUUUGACUAGACUGCC	0.08
GGCAGAGCUCAACACAGCGUUGCAAAGCGGCUGUGGCCAAACUGCC	0.01
GGCAGAGCUCAACACAGCGUUGCAAAGUGGCUGUGGCGAGACUGCU	0.07
GGCAGAGCUCAACACAGCGUGUCUGAGUGGCUGUGGCUAGACUGCC	1.09
GGCAGAGCUCAACACAGCGUUGCAAAGUGGCUGUAGCUAGACUGUC	0.04
GGCAGAGCUCAACACAGCGUGACAAAGUGUCUGCGGCUAGACUGCC	0.05
GGCAGAGCUCAACACAGCGUGCCAACGUGGCUGUGGCUAGAUUGCC	0.25
GGCAGAGCUCAACACAGCGUUGCAAAGAGGCUGUGGCUAAACUGCC	0.15
GGCAGAGCUCAACACAGCGUUGCAAACGGGCUGUGGCUAGACUGCC	2.34
GGCAGAGCUCAACACAGCGUUGCAAAGUGUCUGUGGGGAGACUGCC	0.01
GGCAGAGCUCAACACAGCGUGACAAAGUGGCUGAGGCUAGACCGCC	0.05
GGCAGAGCUCAACACAGCGUGACAAAGUGGCUGUGCCUAGACAGCC	0.03
GGCAGAGCUCAACACAGCGUGACAAAGUGGCUGUGACUAGACUGCU	0.15
GGCAGAGCUCAACACAGCGUGCAAAAGUGGCUGUGGCUAGACUCCC	0.45
GGCAGAGCUCAACACAGCGUGCCAAAGUGGCGUUGGCUAGACUGCC	0.07
